# The supplement of paper PMC8728848
# The other results are listed elsewhere or left out.
# How the values were obtained:
# Test in all cases: glycan array binding signal (z-score within array); higher = stronger binding
# Conditions in all cases: glycan notation: IUPAC condensed, linker removed
# [1] = biological target: GlcNAc(a1-6)Gal(b1-4)GlcNAc
# Outline: (§1)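 Glycan array data were curated from 3228 arrays in the Consortium for Functional Glycomics database and kept only where the protein sequence was available. Glycan names were converted to IUPAC-condensed notation, and columns mapping to the same glycan were averaged. The binding signal is a within-array Z-score, averaged across arrays of the same protein sequence at different concentrations or buffers and across linkers. Negative Z-scores can be read as non-binding.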
# [2] = biological target: GlcNAc(b1-2)Gal(b1-3)GalNAc
# Outline: as §1
# [3] = biological target: GlcNAc(b1-2)Man(a1-3)[GlcNAc(b1-2)Man(a1-6)]Man(b1-4)GlcNAc(b1-4)GlcNAc
# Outline: as §1
# [4] = biological target: GlcNAc(b1-2)Man(a1-3)[GlcNAc(b1-2)Man(a1-6)]Man(b1-4)GlcNAc(b1-4)[Fuc(a1-6)]GlcNAc
# Outline: as §1
# [5] = biological target: GlcNAc(b1-2)Man(a1-3)[GlcNAc(b1-4)][GlcNAc(b1-2)Man(a1-6)]Man(b1-4)GlcNAc(b1-4)GlcNAc
# Outline: as §1
# [6] = biological target: GlcNAc(b1-2)Man(a1-3)[GlcNAc(b1-4)][GlcNAc(b1-2)Man(a1-6)]Man(b1-4)GlcNAc(b1-4)[Fuc(a1-6)]GlcNAc
# Outline: as §1
# [7] = biological target: GlcNAc(b1-2)[GlcNAc(b1-4)]Man(a1-3)[GlcNAc(b1-2)Man(a1-6)]Man(b1-4)GlcNAc(b1-4)GlcNAc
# Outline: as §1
# [8] = biological target: GlcNAc(b1-2)[GlcNAc(b1-4)]Man(a1-3)[GlcNAc(b1-4)][GlcNAc(b1-2)Man(a1-6)]Man(b1-4)GlcNAc(b1-4)GlcNAc
# Outline: as §1
# [9] = biological target: GlcNAc(b1-2)[GlcNAc(b1-4)]Man(a1-3)[GlcNAc(b1-4)][GlcNAc(b1-2)[GlcNAc(b1-6)]Man(a1-6)]Man(b1-4)GlcNAc(b1-4)GlcNAc
# Outline: as §1
# [10] = biological target: GlcNAc(b1-2)[GlcNAc(b1-4)]Man(a1-3)[GlcNAc(b1-4)][GlcNAc(b1-2)[GlcNAc(b1-6)]Man(a1-6)]Man(b1-4)GlcNAc(b1-4)[Fuc(a1-6)]GlcNAc
# Outline: as §1
# [11] = biological target: GlcNAc(b1-2)[GlcNAc(b1-6)]Man(a1-6)[GlcNAc(b1-2)Man(a1-3)]Man(b1-4)GlcNAc(b1-4)GlcNAc
# Outline: as §1
# [12] = biological target: GlcNAc(b1-2)[GlcNAc(b1-6)]Man(a1-6)[GlcNAc(b1-2)Man(a1-3)]Man(b1-4)GlcNAc(b1-4)[Fuc(a1-6)]GlcNAc
# Outline: as §1
# [13] = biological target: GlcNAc(b1-2)[GlcNAc(b1-6)]Man(a1-6)[GlcNAc(b1-4)][GlcNAc(b1-2)Man(a1-3)]Man(b1-4)GlcNAc(b1-4)GlcNAc
# Outline: as §1
# [14] = biological target: GlcNAc(b1-3)Fuc
# Outline: as §1
# [15] = biological target: GlcNAc(b1-3)Gal
# Outline: as §1
# [16] = biological target: GlcNAc(b1-3)Gal(b1-3)GalNAc
# Outline: as §1
# [17] = biological target: GlcNAc(b1-3)Gal(b1-4)Glc
# Outline: as §1
# [18] = biological target: GlcNAc(b1-3)Gal(b1-4)GlcNAc
# Outline: as §1
# [19] = biological target: GlcNAc(b1-3)Gal(b1-4)GlcNAc(b1-2)Man(a1-3)[GlcNAc(b1-3)Gal(b1-4)GlcNAc(b1-2)Man(a1-6)]Man(b1-4)GlcNAc(b1-4)GlcNAc
# Outline: as §1
# [20] = biological target: GlcNAc(b1-3)Gal(b1-4)GlcNAc(b1-2)Man(a1-3)[GlcNAc(b1-3)Gal(b1-4)GlcNAc(b1-2)Man(a1-6)]Man(b1-4)GlcNAc(b1-4)[Fuc(a1-6)]GlcNAc
# Outline: as §1
# [21] = biological target: GlcNAc(b1-3)Gal(b1-4)GlcNAc(b1-2)[GlcNAc(b1-3)Gal(b1-4)GlcNAc(b1-6)]Man(a1-6)[GlcNAc(b1-3)Gal(b1-4)GlcNAc(b1-2)Man(a1-3)]Man(b1-4)GlcNAc(b1-4)GlcNAc
# Outline: as §1
# [22] = biological target: GlcNAc(b1-3)Gal(b1-4)GlcNAc(b1-3)Gal(b1-4)GlcNAc
# Outline: as §1
# [23] = biological target: GlcNAc(b1-3)Gal(b1-4)GlcNAc(b1-3)Gal(b1-4)GlcNAc(b1-2)Man(a1-3)[GlcNAc(b1-3)Gal(b1-4)GlcNAc(b1-3)Gal(b1-4)GlcNAc(b1-2)Man(a1-6)]Man(b1-4)GlcNAc(b1-4)GlcNAc
# Outline: as §1
# [24] = biological target: GlcNAc(b1-3)Gal(b1-4)GlcNAc(b1-3)Gal(b1-4)GlcNAc(b1-2)Man(a1-3)[GlcNAc(b1-3)Gal(b1-4)GlcNAc(b1-3)Gal(b1-4)GlcNAc(b1-2)Man(a1-6)]Man(b1-4)GlcNAc(b1-4)[Fuc(a1-6)]GlcNAc
# Outline: as §1
# [25] = biological target: GlcNAc(b1-3)Gal(b1-4)GlcNAc(b1-3)Gal(b1-4)GlcNAc(b1-2)[GlcNAc(b1-3)Gal(b1-4)GlcNAc(b1-3)Gal(b1-4)GlcNAc(b1-6)]Man(a1-6)[GlcNAc(b1-3)Gal(b1-4)GlcNAc(b1-3)Gal(b1-4)GlcNAc(b1-2)Man(a1-3)]Man(b1-4)GlcNAc(b1-4)[Fuc(a1-6)]GlcNAc
# Outline: as §1
# [26] = biological target: GlcNAc(b1-3)Gal(b1-4)GlcNAc(b1-3)Gal(b1-4)GlcNAc(b1-3)Gal(b1-4)GlcNAc(b1-2)Man(a1-3)[GlcNAc(b1-3)Gal(b1-4)GlcNAc(b1-3)Gal(b1-4)GlcNAc(b1-3)Gal(b1-4)GlcNAc(b1-2)Man(a1-6)]Man(b1-4)GlcNAc(b1-4)GlcNAc
# Outline: as §1
# [27] = biological target: GlcNAc(b1-3)Gal(b1-4)GlcNAc(b1-3)Gal(b1-4)GlcNAc(b1-3)Gal(b1-4)GlcNAc(b1-2)Man(a1-3)[GlcNAc(b1-3)Gal(b1-4)GlcNAc(b1-3)Gal(b1-4)GlcNAc(b1-3)Gal(b1-4)GlcNAc(b1-2)Man(a1-6)]Man(b1-4)GlcNAc(b1-4)[Fuc(a1-6)]GlcNAc
# Outline: as §1
# [28] = biological target: GlcNAc(b1-3)Gal(b1-4)GlcNAc(b1-3)Gal(b1-4)GlcNAc(b1-3)Gal(b1-4)GlcNAc(b1-2)[GlcNAc(b1-3)Gal(b1-4)GlcNAc(b1-3)Gal(b1-4)GlcNAc(b1-3)Gal(b1-4)GlcNAc(b1-6)]Man(a1-6)[GlcNAc(b1-3)Gal(b1-4)GlcNAc(b1-3)Gal(b1-4)GlcNAc(b1-3)Gal(b1-4)GlcNAc(b1-2)Man(a1-3)]Man(b1-4)GlcNAc(b1-4)[Fuc(a1-6)]GlcNAc
# Outline: as §1
# [29] = biological target: GlcNAc(b1-3)Gal(b1-4)GlcNAc(b1-3)Gal(b1-4)GlcNAc(b1-3)Gal(b1-4)GlcNAc(b1-3)Gal(b1-4)GlcNAc(b1-2)Man(a1-3)[GlcNAc(b1-3)Gal(b1-4)GlcNAc(b1-3)Gal(b1-4)GlcNAc(b1-3)Gal(b1-4)GlcNAc(b1-3)Gal(b1-4)GlcNAc(b1-2)Man(a1-6)]Man(b1-4)GlcNAc(b1-4)GlcNAc
# Outline: as §1
# [30] = biological target: GlcNAc(b1-3)Gal(b1-4)GlcNAc(b1-3)Gal(b1-4)GlcNAc(b1-3)Gal(b1-4)GlcNAc(b1-3)Gal(b1-4)GlcNAc(b1-2)Man(a1-3)[GlcNAc(b1-3)Gal(b1-4)GlcNAc(b1-3)Gal(b1-4)GlcNAc(b1-3)Gal(b1-4)GlcNAc(b1-3)Gal(b1-4)GlcNAc(b1-2)Man(a1-6)]Man(b1-4)GlcNAc(b1-4)[Fuc(a1-6)]GlcNAc
# Outline: as §1
# [31] = biological target: GlcNAc(b1-3)Gal(b1-4)GlcNAc(b1-3)Gal(b1-4)GlcNAc(b1-3)Gal(b1-4)GlcNAc(b1-3)Gal(b1-4)GlcNAc(b1-2)[GlcNAc(b1-3)Gal(b1-4)GlcNAc(b1-3)Gal(b1-4)GlcNAc(b1-3)Gal(b1-4)GlcNAc(b1-3)Gal(b1-4)GlcNAc(b1-6)]Man(a1-6)[GlcNAc(b1-3)Gal(b1-4)GlcNAc(b1-3)Gal(b1-4)GlcNAc(b1-3)Gal(b1-4)GlcNAc(b1-3)Gal(b1-4)GlcNAc(b1-2)Man(a1-3)]Man(b1-4)GlcNAc(b1-4)[Fuc(a1-6)]GlcNAc
# Outline: as §1
# [32] = biological target: GlcNAc(b1-3)Gal(b1-4)GlcNAc(b1-3)Gal(b1-4)GlcNAc(b1-3)GalNAc
# Outline: as §1
# [33] = biological target: GlcNAc(b1-3)Gal(b1-4)GlcNAc(b1-3)GalNAc
# Outline: as §1
# [34] = biological target: GlcNAc(b1-3)Gal(b1-4)GlcNAc(b1-3)[GlcNAc(b1-3)Gal(b1-4)GlcNAc(b1-3)]GalNAc
# Outline: as §1
# [35] = biological target: GlcNAc(b1-3)Gal(b1-4)GlcNAc(b1-6)[Gal(b1-3)]GalNAc
# Outline: as §1
# [36] = biological target: GlcNAc(b1-3)Gal(b1-4)GlcNAc(b1-6)[GlcNAc(b1-3)Gal(b1-3)]GalNAc
# Outline: as §1
# [37] = biological target: GlcNAc(b1-3)Gal(b1-4)GlcNAc(b1-6)[GlcNAc(b1-3)]Gal(b1-4)GlcNAc
# Outline: as §1
binder,measurement,setting,value
"Gal 8 (Mus musculus), Q9JL15 (protein) MGGSHHHHHHGMASMLSLNNLQNIIYNPIIPYVGTITEQLKPGSLIVIRGHVPKDSERFQVDFQLGNSLKPRADVAFHFNPRFKRSSCIVCNTLTQEKWGWEEITYDMPFRKEKSFEIVFMVLKNKFQVAVNGRHVLLYAHRISPEQIDTVGIYGKVNIHSIGFRFSSASALPHTLGDLQSMETSALGLTQINRENIQKPGKLQLSLPFEARLNASMGPGRTVVIKGEVNTNARSFNVDLVAGKTRDIALHLNPRLNVKAFVRNSFLQDAWGEEERNITCFPFSSGMYFEMIIYCDVREFKVAINGVHSLEYKHRFKDLSSIDTLSVDGDIRLLDVRSW",glycan array binding signal (z-score),[1],-0.54
same,glycan array binding signal (z-score),[2],-0.179
same,glycan array binding signal (z-score),[3],-0.54
same,glycan array binding signal (z-score),[4],-0.537
same,glycan array binding signal (z-score),[5],-0.542
same,glycan array binding signal (z-score),[6],-0.551
same,glycan array binding signal (z-score),[7],-0.534
same,glycan array binding signal (z-score),[8],-0.541
same,glycan array binding signal (z-score),[9],-0.547
same,glycan array binding signal (z-score),[10],-0.548
same,glycan array binding signal (z-score),[11],-0.541
same,glycan array binding signal (z-score),[12],-0.553
same,glycan array binding signal (z-score),[13],-0.539
same,glycan array binding signal (z-score),[14],-0.528
same,glycan array binding signal (z-score),[15],-0.528
same,glycan array binding signal (z-score),[16],0.079
same,glycan array binding signal (z-score),[17],-0.16
same,glycan array binding signal (z-score),[18],-0.163
same,glycan array binding signal (z-score),[19],0.55
same,glycan array binding signal (z-score),[20],0.421
same,glycan array binding signal (z-score),[21],0.363
same,glycan array binding signal (z-score),[22],1.11
same,glycan array binding signal (z-score),[23],1.55
same,glycan array binding signal (z-score),[24],2.01
same,glycan array binding signal (z-score),[25],1.56
same,glycan array binding signal (z-score),[26],1.65
same,glycan array binding signal (z-score),[27],2.08
same,glycan array binding signal (z-score),[28],2.06
same,glycan array binding signal (z-score),[29],2.74
same,glycan array binding signal (z-score),[30],3.01
same,glycan array binding signal (z-score),[31],2.3
same,glycan array binding signal (z-score),[32],0.651
same,glycan array binding signal (z-score),[33],-0.11
same,glycan array binding signal (z-score),[34],0.508
same,glycan array binding signal (z-score),[35],0.386
same,glycan array binding signal (z-score),[36],0.175
same,glycan array binding signal (z-score),[37],0.085
